PubChem BioAssay (NCATS)
The shares of active, inactive and inconclusive entries below differ from those in the screen. No potency is given beside an inconclusive call; the fits are too rough. Active and inactive are the calls of the source. The call rests on the fitted dose curve; in most records, active means well fitted inhibition curve with a large enough effect; inconclusive means small, poorly fitted or top-dose-only effect, or another doubt; inactive means no such curve, though single readings can be large or run the other way.

What follows are molecules tested against DNA polymerase kappa (Homo sapiens) (UniProt Q9UBT6) (assay: qHTS for Inhibitors of Polymerase Kappa: Confirmatory Assay for Cherry-picked Compounds (AID 720501)). Conditions: purified Pol-kappa, fluorescent strand-displacement substrate.
Procedure, shortened: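 Strand-displacement fluorescence read-out: TAMRA reporter released from a BHQ-2-quenched template, measured at 525/598 nm over a 10 min kinetic window. Substrate was 50 nM final; enzyme was 10 nM Pol-kappa, preincubated 15 min at room temperature with compound.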
Potency means the concentration at half of the fitted maximal effect; tags describe the fitted curve by direction and shape.

Chain of UniProt Q9UBT6 (Q9UBT6 whole entry, looked up): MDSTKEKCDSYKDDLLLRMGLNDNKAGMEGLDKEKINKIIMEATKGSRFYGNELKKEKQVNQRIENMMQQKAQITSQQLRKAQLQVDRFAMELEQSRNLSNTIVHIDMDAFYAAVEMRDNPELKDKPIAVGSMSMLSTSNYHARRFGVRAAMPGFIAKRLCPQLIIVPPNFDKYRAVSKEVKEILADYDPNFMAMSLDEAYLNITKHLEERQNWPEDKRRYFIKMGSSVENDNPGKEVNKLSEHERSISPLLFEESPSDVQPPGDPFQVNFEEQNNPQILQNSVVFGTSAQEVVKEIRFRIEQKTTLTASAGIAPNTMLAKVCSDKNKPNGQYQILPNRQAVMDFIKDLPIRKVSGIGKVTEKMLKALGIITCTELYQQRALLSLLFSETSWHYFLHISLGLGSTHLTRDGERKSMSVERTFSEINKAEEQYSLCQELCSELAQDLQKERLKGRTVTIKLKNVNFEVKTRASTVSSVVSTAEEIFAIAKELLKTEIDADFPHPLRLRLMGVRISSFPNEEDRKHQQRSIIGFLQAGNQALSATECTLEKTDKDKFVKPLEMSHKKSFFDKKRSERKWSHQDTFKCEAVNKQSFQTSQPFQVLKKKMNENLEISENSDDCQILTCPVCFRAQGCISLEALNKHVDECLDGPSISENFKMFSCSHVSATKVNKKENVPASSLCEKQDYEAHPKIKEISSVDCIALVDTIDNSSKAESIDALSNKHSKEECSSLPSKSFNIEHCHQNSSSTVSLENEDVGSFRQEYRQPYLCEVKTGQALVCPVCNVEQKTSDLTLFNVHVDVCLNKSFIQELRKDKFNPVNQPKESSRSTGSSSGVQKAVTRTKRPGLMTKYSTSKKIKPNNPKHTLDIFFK

SMILES	Potency
Cc1ccc(/C=N/Nc2ccc(C(=O)O)cc2)s1	inconclusive [inhibitor, partial curve]
O=C(Nc1nnc(S(=O)(=O)N2CCCc3ccccc32)s1)c1ccccc1Cl	inconclusive [inhibitor, partial curve]
COc1cccc(Nc2cc(C)nc3nc(-c4ccc(Cl)cc4)nn23)c1	active: 10.6 µM
CCOc1cc(/C=C2\SC(=O)N(CC(=O)Nc3ccccc3F)C2=O)cc([N+](=O)[O-])c1O	inconclusive [inhibitor, partial curve, poor fit]
CCCCN(C(=O)c1cc2c(s1)CCC2)c1c(N)n(CCC)c(=O)[nH]c1=O	inconclusive [inhibitor, partial curve]
O=C(O)c1cc([N+](=O)[O-])cc2c1C=Cc1ccccc1O2	inconclusive [inhibitor, partial curve]
O=C(CN1C(=O)N/C(=C\c2cccn2-c2cccc(C(=O)O)c2)C1=O)Nc1cccc(Cl)c1	inconclusive [inhibitor, partial curve]
O=C(Nc1nnc(S(=O)(=O)N2CCCc3ccccc32)s1)c1ccc(Cl)cc1	inconclusive [inhibitor, single point]
COc1ccc(C(C(=O)NC2CCCC2)N(C(=O)c2snc(C(N)=O)c2N)c2cccc(O)c2)cc1 (stereo not given)	inconclusive [inhibitor, partial curve]
Cc1ccc(NC(=O)CCC(=O)c2ccc(Cl)s2)nc1	inconclusive [inhibitor, partial curve]
